Test results as given in the RNAGym collection of RNA variant scans (doi:10.7554/elife.90254).
The source gives no read counts; variants with many changes may rest on few reads.

B1: LINE1-full (parent)
chain: UACGUAGGUGGUUUUCCCCUGAUAGUGCUAAGGGGGCCUGGAAGUUUGGACUGGGCAGAGCUCAACACAGCGUGGCAAAGUGGCUGUGGCUAGACUGCCUCUCUGGAUUCCUCGUCACUCAGCAGGGCAUCUCUGAGAGAAAUGCC

Variants of: B1
Assay: self-cleavage, relative activity (ratio to wild type); higher = more cleavage; in vitro, sequencing; the parent is a self-cleaving ribozyme

Variant	self-cleavage
U62C A124G A141G	0.11
A64G C76U U102C U108C	0.46
U62A A77G A94U	0.05
U62C A79G U102C	0.09
C63U A67G A69U U102C	0.04
G58A A77U A117G	0.07
U62C A79G G114A	0.44
A57U U62C U96C	0.08
A59U C66U A77U C98U	0.03
A59G G82A A94G U134A	0.26
G60U G70C U112A A121G C133A	0.03
U62C A78G A136U	0
A57U A79G U96C U104A	0
G58U A121U C133A	0.05
G58A U91C A129G	0.04
G58A G82U U119C A141G A142U	0.05
G60A A64G U81C	0
U62A U87A C113U	0.09
A64G U73C U85A A141G	0
A59G C90A A140G	0.04
U62C A69G G88U U100C C101A U102C	0
A57U A77C A79G U81A U104C U143C	0
A59G A121G G139U	0.06
A57U U87A U143C	0.05

Variant	self-cleavage
U62C A65C U109C C113U A117G	0.2
A59G U104C U112C	0.29
A59G U115C A142C	0.14
A64G A77U G83A	0.06
A57U A65G U130A	0.13
A57G U104A U134C	0.4
U62C U73A U130C	0.07
A59U U62C C95U	0.02
A64G G86A A92U	0.15
A59G A79C U87A U130A	0
A64G A94G C98U U104C	0.22
U62C U96A A142U	0.03
A59G U104C A138G	0.14
A57U G86A A142G	0.02
A59G A67G A69U	0
A64G G93U A121C	0.26
U62A A107G U115C	0
U62C A77G C84A U85G A94G U132C A141G	0
A57U A64G A121G A129G	0
U62C A64G A69G	0
U62C U112C C116U A136U U143C	0.03
A57U A65G A77U U81G	0.06
A59U C98U C113A	0.36
A57U A78G C99U U104C U112A	0

Variant	self-cleavage
U62C A78G A141G	0
A59G U108C A138G	0.12
C61U A64U G127U	0.03
U62C U87C A138G	0.29
U62C A67G U109A U115C	0.31
A64G A77U C145G	0.21
A59U A77G U91C A136G	0.84
U62C U96G U100C A141G	0.09
A57G U115C A142G	1.78
G60A U115C A129G	0.01
A59U A65G U81C A138G	0
G60A C113U U130G	0.03
U62C A67G G97A	0.06
G60A A65G U73A C145U	0
U62C U91C G125C	0
A59G U87C U119C	0
A59G A65G A142G	0
U62C A65U A136G A142G	0
A59G G125C G126A	0.07
U62C A65U U96A A129G	0.08
U62C A65G U119A	0
U62C U73A U132C	0
U62G U134A A138G	0.14
C63A U104C U108A	0.07

Variant	self-cleavage
G58A U100C U132C A140G	0.06
A57U G105C A142G	0.09
A59G A67G A117U A140U	0.27
A64G G72A C99A U130C	0.07
U62C A69U U104C A107G	0
G58A U73C U96A A142G	0
A57U U132C A138G	0.09
U62C A69U U130C	0.01
A57U A65G A69G	0
G58A U81A U85A A141G	0.01
U62C U104A U119C	0
A64C U96C U115C	0
G58U U73G U100A C123U A129G A141G	0
A57U A136G U143A	0.21
U62C C95U U108C U115C A142G	0.32
C63U A64G C68U A140G	0.03
C61A A64G A78U C120U	0.05
U62C A129G U132A	0.07
G60A U108C U115C	0.01
A57U U108C U132C	0.48
A64G A140G A141G	0
C61U A138G A141G	0.05
U62A A64C U87C C133U	0.03
A59G A69G U85A A121G	0

Variant	self-cleavage
G58A A77G A107G U119C U134A	0.13
A59G A129C A140G	0.05
A57U U109A A141G	0.38
U62A U81A U100C	0.11
A59G U85A A129C A138G	0
C61A U96C C113U U115C	0.02
A64G C84U U87C	0.07
U62G A107G U115A	0.17
U62A G122C U134A	0.02
A64G U73A U81A	0.18
U62C A107G A141G	0
A64G U81A U85C U96C	0
U62A U73C A77G U130C	0
U62C A124U A136G A141G	0
U62A C63U A69U U102C	0.04
G60U C84U U85C U91A U100A	0.04
A59U C61U A64G A69G U104C U112A	0.19
A57G U96C A142G	1.36
U62C A69G U134A	0.11
A59G A67C G127A	0
A64G A136G A142G	0.37
A64G A65G A69G	0
C61U U102C U115C A138G	0.05
A59G A69G U130C	0

Variant	self-cleavage
A64G A78G A94G	0
A57U U115A A124G	0.03
U62C U102A U115C	0.23
U62C A79G A136G	0.07
A59U C118U A121U	0.83
U62A U91C U108C	0.09
C61U U119A A142G	0.01
A57U A124G A141G	0.14
U62C U87C A136G	0
A59G A92G A107G	0
U62A A78G U115C	0.06
U62C U87A A94G U100C	0
C63A A64G U87A U100C G127A	0.02
U62C U119A A129U A138C	0.05
A64G U73C U81A A121U	0.61
A57G U115A A142G	1.23
C61A A78G U134G	0.04
A59U U73A U96C	0.11
U62C A79G U104C A140G	0
U62C A67G A121U	0
A59G U104A U134C	0.07
A64G A78G A79G A117U	0.39
C61U U134C G144A	0.04
G60A A77G A129U A138G	0.04

Variant	self-cleavage
U62C A65U U109C	0.09
A64G G86A U115C	0.11
A59G U85A U96A	0.09
A57G U102C U115A	0.35
A64C U87C U115C	0
A57G U112C U143A	0.39
G60A A67G C71A	0.02
U62C C66U A124U A141G	0.01
U62C A79G A141G	0.07
A64C A69G A129G	0.18
A59U U73A U102C A136U	0.89
A57G U108C A121G A138G	2.63
U62A G74U A77G U96A	0.01
G58U U73A A78G U134A A142G	0.03
U62A A64G U104C	0.04
A59G C99U U108C C110U	0.01
A57G U109A A121G	0.75
U62C A65G A94G	0
U62C A65U C71U U96C	0.12
G58A A94U A121U	0.02
A59G U115A A142G	0.1
A59G A107G A142G	0
U62A U91C U115C A142G	0
